Assay results from the supplement of paper PMC8728848.
Some of the results follow.

Tests used:
Assay in all cases: glycan array binding signal (z-score within array); higher = stronger binding
Conditions in all cases: glycan notation: IUPAC condensed, linker removed
Fuc(a1-2)Gal = target: Fuc(a1-2)Gal
Summary of the method: (§1)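 Negative Z-scores can be read as non-binding. The Z-score is calculated within each array and then averaged across arrays of one protein sequence at different concentrations or buffers and across linkers. Arrays, 3228 in all, were curated from the Consortium for Functional Glycomics database and kept only where the protein sequence was available.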

Fuc(a1-2)Gal(b1-3)GalNAc = target: Fuc(a1-2)Gal(b1-3)GalNAc
Summary of the method: as §1

[1] = target: Fuc(a1-2)Gal(b1-3)GalNAc(a1-3)[Fuc(a1-2)]Gal(b1-4)Glc
Summary of the method: as §1

[2] = target: Fuc(a1-2)Gal(b1-3)GalNAc(a1-3)[Fuc(a1-2)]Gal(b1-4)GlcNAc
Summary of the method: as §1

[3] = target: Fuc(a1-2)Gal(b1-3)GalNAc(b1-3)Gal
Summary of the method: as §1

[4] = target: Fuc(a1-2)Gal(b1-3)GalNAc(b1-3)Gal(a1-4)Gal(b1-4)Glc
Summary of the method: as §1

[5] = target: Fuc(a1-2)Gal(b1-3)GalNAc(b1-4)[Neu5Ac(a2-3)]Gal(b1-4)Glc
Summary of the method: as §1

Fuc(a1-2)Gal(b1-3)GlcNAc = target: Fuc(a1-2)Gal(b1-3)GlcNAc
Summary of the method: as §1

[6] = target: Fuc(a1-2)Gal(b1-3)GlcNAc(b1-2)Man(a1-3)[Fuc(a1-2)Gal(b1-3)GlcNAc(b1-2)Man(a1-6)]Man(b1-4)GlcNAc(b1-4)GlcNAc
Summary of the method: as §1

[7] = target: Fuc(a1-2)Gal(b1-3)GlcNAc(b1-2)Man(a1-3)[Fuc(a1-2)Gal(b1-3)GlcNAc(b1-2)Man(a1-6)]Man(b1-4)GlcNAc(b1-4)[Fuc(a1-6)]GlcNAc
Summary of the method: as §1

[8] = target: Fuc(a1-2)Gal(b1-3)GlcNAc(b1-3)Gal(b1-4)Glc
Summary of the method: as §1

[9] = target: Fuc(a1-2)Gal(b1-3)GlcNAc(b1-3)GalNAc
Summary of the method: as §1

[10] = target: Fuc(a1-2)Gal(b1-3)GlcNAc(b1-3)[Fuc(a1-2)Gal(b1-3)GlcNAc(b1-6)]GalNAc
Summary of the method: as §1

[11] = target: Fuc(a1-2)Gal(b1-3)GlcNAc(b1-3)[Gal(b1-4)GlcNAc(b1-6)]Gal(b1-4)Glc
Summary of the method: as §1

[12] = target: Fuc(a1-2)Gal(b1-3)GlcNAc(b1-3)[Neu5Ac(a2-6)Gal(b1-4)GlcNAc(b1-6)]Gal(b1-4)Glc
Summary of the method: as §1

[13] = target: Fuc(a1-2)Gal(b1-3)GlcNAc6S
Summary of the method: as §1

[14] = target: Fuc(a1-2)Gal(b1-3)[Fuc(a1-4)]GlcNAc
Summary of the method: as §1

[15] = target: Fuc(a1-2)Gal(b1-3)[Fuc(a1-4)]GlcNAc(b1-2)Man(a1-3)[Fuc(a1-2)Gal(b1-3)[Fuc(a1-4)]GlcNAc(b1-2)Man(a1-3)]Man(b1-4)GlcNAc(b1-4)GlcNAc
Summary of the method: as §1

[16] = target: Fuc(a1-2)Gal(b1-3)[Fuc(a1-4)]GlcNAc(b1-2)Man(a1-3)[Fuc(a1-2)Gal(b1-3)[Fuc(a1-4)]GlcNAc(b1-2)Man(a1-6)]Man(b1-4)GlcNAc(b1-4)[Fuc(a1-6)]GlcNAc(b1-4)[Fuc(a1-6)]GlcNAc
Summary of the method: as §1

[17] = target: Fuc(a1-2)Gal(b1-3)[Fuc(a1-4)]GlcNAc(b1-3)[Fuc(a1-3)[Gal(b1-4)]GlcNAc(b1-6)]Gal(b1-4)Glc
Summary of the method: as §1

[18] = target: Fuc(a1-2)Gal(b1-3)[Fuc(a1-4)]GlcNAc(b1-3)[Gal(b1-4)GlcNAc(b1-6)]Gal(b1-4)Glc
Summary of the method: as §1

[19] = target: Fuc(a1-2)Gal(b1-4)Fuc(a1-3)]GlcNAc(b1-2)Man(a1-3)[Fuc(a1-2)Gal(b1-4)[Fuc(a1-3)]GlcNAc(b1-2)Man(a1-6)]Man(b1-4)GlcNAc(b1-4)GlcNAc
Summary of the method: as §1

Fuc(a1-2)Gal(b1-4)Glc = target: Fuc(a1-2)Gal(b1-4)Glc
Summary of the method: as §1

Fuc(a1-2)Gal(b1-4)Glc6S = target: Fuc(a1-2)Gal(b1-4)Glc6S
Summary of the method: as §1

Fuc(a1-2)Gal(b1-4)GlcNAc = target: Fuc(a1-2)Gal(b1-4)GlcNAc
Summary of the method: as §1

[20] = target: Fuc(a1-2)Gal(b1-4)GlcNAc(b1-2)Man
Summary of the method: as §1

[21] = target: Fuc(a1-2)Gal(b1-4)GlcNAc(b1-2)Man(a1-3)[Fuc(a1-2)Gal(b1-4)GlcNAc(b1-2)Man(a1-6)]Man(b1-4)GlcNAc(b1-4)GlcNAc
Summary of the method: as §1

[22] = target: Fuc(a1-2)Gal(b1-4)GlcNAc(b1-2)Man(a1-3)[Fuc(a1-2)Gal(b1-4)GlcNAc(b1-2)Man(a1-6)]Man(b1-4)GlcNAc(b1-4)[Fuc(a1-6)]GlcNAc
Summary of the method: as §1

[23] = target: Fuc(a1-2)Gal(b1-4)GlcNAc(b1-2)[Fuc(a1-2)Gal(b1-4)GlcNAc(b1-4)]Man(a1-3)[Fuc(a1-2)Gal(b1-4)GlcNAc(b1-2)Man(a1-6)]Man(b1-4)GlcNAc(b1-4)GlcNAc
Summary of the method: as §1

[24] = target: Fuc(a1-2)Gal(b1-4)GlcNAc(b1-3)Gal(b1-4)GlcNAc
Summary of the method: as §1

B1: CFEM-PPm (Pichia pastoris), F2QPV1 (protein)
chain: AVATPPACLLACAAEVVKESSDCDALNNIQCICENEGSAIHACLESTCPDGLSSTALQSFEDVCE
glycan array binding signal (z-score) (Fuc(a1-2)Gal): -0.282 | glycan array binding signal (z-score) (Fuc(a1-2)Gal(b1-3)GalNAc): -0.128 | glycan array binding signal (z-score) [1]: -0.33 | glycan array binding signal (z-score) [2]: -0.477 | glycan array binding signal (z-score) [3]: 0.693 | glycan array binding signal (z-score) [4]: -0.397 | glycan array binding signal (z-score) [5]: 0.176 | glycan array binding signal (z-score) (Fuc(a1-2)Gal(b1-3)GlcNAc): -0.176 | glycan array binding signal (z-score) [6]: -0.289 | glycan array binding signal (z-score) [7]: -0.221 | glycan array binding signal (z-score) [8]: -0.269 | glycan array binding signal (z-score) [9]: 0.84 | glycan array binding signal (z-score) [10]: -0.111 | glycan array binding signal (z-score) [11]: -0.32 | glycan array binding signal (z-score) [12]: -0.215 | glycan array binding signal (z-score) [13]: -0.038 | glycan array binding signal (z-score) [14]: 0.026 | glycan array binding signal (z-score) [15]: 0.346 | glycan array binding signal (z-score) [16]: 0.007 | glycan array binding signal (z-score) [17]: -0.342 | glycan array binding signal (z-score) [18]: -0.1 | glycan array binding signal (z-score) [19]: 0.209 | glycan array binding signal (z-score) (Fuc(a1-2)Gal(b1-4)Glc): -0.194 | glycan array binding signal (z-score) (Fuc(a1-2)Gal(b1-4)Glc6S): -0.286 | glycan array binding signal (z-score) (Fuc(a1-2)Gal(b1-4)GlcNAc): -0.341 | glycan array binding signal (z-score) [20]: -0.119 | glycan array binding signal (z-score) [21]: -0.405 | glycan array binding signal (z-score) [22]: -0.412 | glycan array binding signal (z-score) [23]: -0.188 | glycan array binding signal (z-score) [24]: -0.192
